Laboratory results: PubChem BioAssay AID686978 (National Center for Advancing Translational Sciences (NCATS), 2013)
The campaign covered roughly 420,000 compounds. About 64,000 (15%) were called active. Inconclusive means that the source gave no clear call. Such entries were picked first, then a sample of the others. Calls come from the whole dose curve; as a rule, active = well fitted inhibition curve with a large enough effect; inconclusive = small, poorly fitted or top-dose-only effect; inactive = flat fitted curve, though single readings scatter. No potency is given beside an inconclusive call; the fits are too rough.

Experiment: qHTS for Inhibitors of human tyrosyl-DNA phosphodiesterase 1 (TDP1): qHTS in cells in absence of CPT; note: nearly all actives have a fitted effect of over 55% in size
Details: DT40 Tdp1-/- hTDP1 cells, no CPT, ATP luminescence, 48 h; activity change, negative = growth inhibition: at 46.2 µM (top of the series) unless noted
How it was run: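 Compound effects on proliferation are scored in DT40 Tdp1-/-;hTDP1 cells in the absence of CPT. ATP levels (CellTiter-Glo luminescence) are recorded after a ≥48 hr, 37 °C incubation.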
% is set by controls: 0 for no effect and ±100 for the full control effect; potency is the fitted concentration of half-maximal effect; tags give direction and shape of the fitted curve.

Question: Which Potency does the source give for `COc1cccc(C(=O)CC2(O)C(=O)N(Cc3ccccc3)c3ccccc32)c1` (stereo not drawn) here?
Answer: The Potency was active: 6.51 µM.

Question: For `CCN(CC)c1ccc(/C=N/n2c(-c3ccccc3Br)n[nH]c2=S)cc1`, which Potency is on record?
Answer: The Potency was active: 18.4 µM.

Question: Which Potency does the source give for `O=C(c1cc([N+](=O)[O-])[nH]n1)N1CCSCC1` here?
Answer: The Potency was “inactive”.

Question: For `O=C(COC(=O)c1cn(-c2ccccc2)nc1-c1cccnc1)NC1CC1`, which Potency is on record?
Answer: The Potency was inconclusive [inhibitor, single point].

Question: Which activity change, negative = growth inhibition does the source give for `Cc1cc(C)n(CCC(=O)Nc2cccc(F)c2)n1` here?
Answer: The activity change, negative = growth inhibition was inconclusive: -30% [inhibitor].

Question: For `COc1ccc(NC(=O)CSc2nnc3ccc(-c4cccnc4)nn23)c(OC)c1`, which Potency is on record?
Answer: The Potency was “inactive”.

Question: For `CN(C)C(=N)c1n[nH]nc1SCc1ccc(Cl)c(Cl)c1`, which Potency is on record?
Answer: Its Potency is “inactive”.

Question: For `CC(C)c1cc(C(=O)OCC(=O)NC2CC2)c(O)c(C(C)C)c1`, which Potency is on record?
Answer: Its Potency is inconclusive [inhibitor, single point].

Question: With `CCn1c(SCC(=O)N/N=C/c2ccc(C)o2)nnc1-c1ccc(C(C)(C)C)cc1` as the compound, how does the Potency read?
Answer: The Potency was inconclusive [inhibitor, partial curve, poor fit].

Question: With `COCCNC(=O)C1CCCN(C(=O)c2cncc(Br)c2)CC1` (stereo not drawn) as the compound, how does the Potency read?
Answer: Its Potency is “inactive”.

Question: For `O=C(CNCc1ccccc1)Nc1cccc(Cl)c1Cl`, which Potency is on record?
Answer: The Potency was “inactive”.

Question: Which Potency does the source give for `CCN(CC(=O)Nc1ccc2c(c1)OCCO2)C(=O)c1cccc(OCC(C)C)c1` here?
Answer: The Potency was inconclusive [inhibitor, single point].

Question: With `O=C(NCc1cccc(C(F)(F)F)c1)c1ccc2nc([C@H]3C[C@H](O)[C@@H](CO)O3)[nH]c2c1` as the compound, how does the Potency read?
Answer: The Potency was “inactive”.

Question: For `Cc1ccccc1C(=O)Nc1sc2c(c1C(=O)N1CCC(C)CC1)CCC(C)C2` (stereo not drawn), which Potency is on record?
Answer: The Potency was active: 20.6 µM.

Question: Which Potency does the source give for `C[C@H](CO)N1C[C@H](C)[C@@H](CN(C)C(=O)Nc2ccc(C(F)(F)F)cc2)Oc2ccc(NC(=O)Nc3ccccc3)cc2C1=O` here?
Answer: The Potency was inconclusive [inhibitor, single point].

Question: Which Potency does the source give for `COc1ccc(C(=O)NNS(=O)(=O)c2ccc(C)cc2)cc1` here?
Answer: Its Potency is “inactive”.

Question: Which Potency does the source give for `COc1cc(CN2CCN(Cc3ccc(C)cc3)CC2)c([N+](=O)[O-])cc1OC` here?
Answer: Its Potency is inconclusive [inhibitor, single point].

Question: For `CCOC(=O)/C=C/COc1ccccc1[N+](=O)[O-]`, which Potency is on record?
Answer: The Potency was “inactive”.

Question: Which Potency does the source give for `COc1ccccc1-n1cnnc1SCC(=O)c1cc(C)n(Cc2cccs2)c1C` here?
Answer: The Potency was inconclusive [inhibitor, partial curve].

Question: With `CCOc1ccc(-n2c(SCc3nc(-c4ccc(C)cc4)no3)nnc2-c2ccncc2)cc1` as the compound, how does the Potency read?
Answer: Its Potency is inconclusive [inhibitor, single point].

Question: Which Potency does the source give for `CC(C)CCn1c(=O)c2c(nc3n2CCCN3Cc2ccccc2)n(C)c1=O` here?
Answer: The Potency was active: 20.6 µM.

Question: With `COc1cccc(OC)c1/C=C/C(=O)NC1CCCCC1` as the compound, how does the Potency read?
Answer: Its Potency is inconclusive [inhibitor, single point].

Question: Which Potency does the source give for `COc1cc(CNn2cn[nH]c2=S)cc(Br)c1OCc1ccccc1F` here?
Answer: The Potency was “inactive”.

Question: For `CCc1cccc(NC(=O)Cn2c(=O)n3nc(-c4cccc(F)c4)nc3c3ccccc32)c1`, which Potency is on record?
Answer: Its Potency is active: 4.61 µM.

Question: Which Potency does the source give for `Cc1cccc(C)c1-n1nnnc1C(c1ccccc1)N1CCN(C/C=C/c2ccccc2)CC1` (stereo not drawn) here?
Answer: Its Potency is active: 16.4 µM.

Question: With `COc1ccc(CNC(=O)N2CCc3ccccc3C2)cc1` as the compound, how does the Potency read?
Answer: The Potency was inconclusive [inhibitor, single point].

Question: With `COc1ccccc1C(=O)NCC(=O)N=Nc1c(O)n(C(C)C)c2ccccc12` as the compound, how does the Potency read?
Answer: Its Potency is active: 18.4 µM.

Question: For `Fc1cccc(Cl)c1CSc1nnc(CN2CCOCC2)n1-c1ccccc1`, which Potency is on record?
Answer: Its Potency is inconclusive [inhibitor, single point].

Question: For `Nc1nonc1-n1nnc(C(=O)N/N=C/c2ccccc2Cl)c1COc1ccc(F)cc1`, which activity change, negative = growth inhibition is on record?
Answer: The activity change, negative = growth inhibition was inconclusive: -31.9% [inhibitor].

Question: Which activity change, negative = growth inhibition does the source give for `COc1ccc2nc(SCC(=O)Nc3ccccc3C#N)[nH]c2c1` here?
Answer: Its activity change, negative = growth inhibition is inconclusive: -30.1% [inhibitor].

Question: Which Potency does the source give for `Cc1ccccc1CS(=O)(=O)Cc1ccc(C(=O)NCCc2ccc(Cl)cc2)o1` here?
Answer: Its Potency is inconclusive [inhibitor, single point].

Question: For `O=C(NC1CCc2ccccc21)C12CN(Cc3ccccc3)CC1C(c1cccc([N+](=O)[O-])c1)=NO2` (stereo not drawn), which Potency is on record?
Answer: Its Potency is “inactive”.

Question: For `CNC[C@H](CC1CCCCC1)NC[C@H](CO)NCCc1cccc(C(F)(F)F)c1`, which Potency is on record?
Answer: Its Potency is active: 5.8 µM.

Question: With `CC1=C(C(=O)N2CCOCC2)CC(CC(=O)NC2CCCC2)C(=O)N1Cc1ccccc1` (stereo not drawn) as the compound, how does the Potency read?
Answer: Its Potency is “inactive”.

Question: With `NS(=O)(=O)c1ccc(CCNC(=O)c2cnccn2)cc1` as the compound, how does the Potency read?
Answer: Its Potency is “inactive”.

Question: For `Cc1cc(Cl)ccc1OC(C)C(=O)Nc1ccccc1N1CCOCC1` (stereo not drawn), which Potency is on record?
Answer: Its Potency is inconclusive [inhibitor, single point].

Question: Which Potency does the source give for `CCn1c(SCC(N)=O)nnc1-c1ccc(S(=O)(=O)N2CCN(C)CC2)cc1` here?
Answer: The Potency was “inactive”.

Question: For `CCOC(=O)N1CCC(NC(=O)c2cnn(-c3ccc(OC)cc3)c2C2CCN(C(=O)OC(C)(C)C)CC2)CC1`, which Potency is on record?
Answer: The Potency was inconclusive [inhibitor, single point].

Question: Which Potency does the source give for `O=C(NCCC1=CCCCC1)c1cccc2c1C(=O)N(C1CCCCC1)C2` here?
Answer: Its Potency is inconclusive [inhibitor, single point].

Question: Which Potency does the source give for `CC1CN(S(=O)(=O)c2ccc(C(=O)OCc3ccc(C#N)cc3)cc2)CC(C)O1` (stereo not drawn) here?
Answer: Its Potency is “inactive”.

Question: For `Fc1ccc2[nH]c3c(N4CCSCC4)ncnc3c2c1`, which Potency is on record?
Answer: The Potency was active: 9.2 µM.

Question: With `COc1ccc(C(CNC(=O)c2oc3ccc(Br)cc3c2C)N2CCCCC2)cc1` (stereo not drawn) as the compound, how does the Potency read?
Answer: The Potency was active: 9.2 µM.

Question: Which Potency does the source give for `COc1ccccc1S(=O)(=O)N(C)C[C@@H]1OCc2cnnn2CCCC(=O)N([C@H](C)CO)C[C@H]1C` here?
Answer: Its Potency is “inactive”.

Question: Which Potency does the source give for `O=C(Nc1cccc([N+](=O)[O-])c1)c1cc2ccccc2cc1O` here?
Answer: Its Potency is active: 2.59 µM.

Question: Which Potency does the source give for `CCc1ccccc1NC(=S)N(CCN1CCCCC1)Cc1ccco1` here?
Answer: The Potency was inconclusive [inhibitor, partial curve, poor fit].

Question: With `CCC(=O)Nc1cc(C)c(NC(=O)C23CC4CC(CC(C4)C2)C3)cn1` as the compound, how does the Potency read?
Answer: Its Potency is “inactive”.

Question: For `O=C(c1cccc([N+](=O)[O-])c1)c1cc2ccccc2o1`, which Potency is on record?
Answer: The Potency was inconclusive [inhibitor, partial curve].

Question: For `O=C1N/C(=N\N=C\c2cccnc2)SC1Cc1ccc(SC(F)F)cc1` (stereo not drawn), which Potency is on record?
Answer: Its Potency is active: 3.66 µM.
